Data taken from PubChem BioAssay AID602156 (GNF / Scripps Winzeler lab, 2011).
This is one part of the list. Further columns of the screen follow, without active or inactive calls.

Test: Plasmodium liver-stage growth inhibition, dose response, imaging, Malaria Box, P. yoelii, HepG2-A16-CD81EGFP (AID 602156);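 also: infected cells exposed to compound for 48 hours before fixation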
Conditions: P. yoelii liver stage in HepG2-A16-CD81EGFP, measured here: liver parasite size at 10 uM

| SMILES | parasite size [um] |
| --- | --- |
| CCCc1c(C)[nH]c2ccccc2c1=O | 34.5 |
| Fc1ccc(Nc2nc(NCc3ccco3)c3ccccc3n2)cc1 | 45.3 |
| CCCCc1c(CCC)c(=N)c2ccccc2n1C | 58.1 |
| C1CCC(NP2(NC3CCCCC3)=NP(NC3CCCCC3)(NC3CCCCC3)=NP(NC3CCCCC3)(NC3CCCCC3)=N2)CC1 | 33.8 |
| Cc1ccc2nc3nc4c(C)cccc4c(N)c3cc2c1 | 22.2 |
| O=[N+]([O-])c1ccc(N2CCCN(C(=S)Nc3ccc(F)cc3Br)CC2)nc1 | 120 |
| CN1C(=O)N(C)C(NNC(N)=S)C1NNC(N)=S (stereo not given) | 118 |
| CN(C)c1ccc(C(C=C2C=C(c3ccccc3)C=C(c3ccccc3)O2)=C2C=CC(=[N+](C)C)C=C2)cc1 | 26.7 |
| N#CC1=C(N)Oc2c3c(c4ccccc4c2C1c1ccc(F)cc1)C(c1ccc(F)cc1)C(C#N)=C(N)O3 (stereo not given) | 106 |
| Oc1c(CN2CCN(Cc3ccc4cccnc4c3O)CC2)ccc2cccnc12 | 21.2 |
| Nc1cccc(C(=O)Nc2ccc(Oc3cccc(Oc4ccc(NC(=O)c5cccc(N)c5)cc4)c3)cc2)c1 | 90.8 |
| Clc1cccc(Nc2nc(NCc3ccco3)c3ccccc3n2)c1 | 36.6 |
| CCOC(=O)c1ccc(NCc2c(C)[nH]c3ccccc3c2=O)cc1 | 18.3 |
| CCCCN(CCCC)[P+](N(CCCC)CCCC)(N(CCCC)CCCC)N(CCCC)CCCC | 24.3 |
| COc1ccccc1Nc1nc(NCc2ccccc2)c2ccccc2n1 | 40.3 |
| CC(=O)N(C)C1=C(N2CCCC2)C(=O)c2ccccc2C1=O | 124 |
| O=C(Nc1ccc(-c2ccc(Cl)cc2)cc1)c1cccs1 | 31.7 |
| Brc1ccc(Nc2nc(NCc3ccco3)c3ccccc3n2)cc1 | 35.2 |
| COc1ccc(C2N(Cc3ccccc3)c3ccccc3N2Cc2ccccc2)cc1 | 30.8 |
| COc1ccc(C2CC(=O)C3=C(C2)NC(C)=C(C(=O)OC2CCCC2)C3c2ccc([N+](=O)[O-])cc2)cc1OC (stereo not given) | 104 |
